Measured values published in the supplement of paper PMC12217912.
The other results are listed elsewhere or left out. The full chains were built here from the parent and the listed change. Inactive controls read about 0.05.

B1: TEV protease; numbered along this chain (parent)
chain: MGESLFKGPRDYNPISSSICHLTNESDGHTTSLYGIGFGPFIITNKHLFRRNNGTLVVQSLHGVFKVKDTTTLQQHLVDGRDMIIIRMPKDFPPFPQKLKFREPQREERICLVTTNFQTKSMSSMVSDTSCTFPSGDGIFWKHWIQTKDGQCGSPLVSTRDGFIVGIHSASNFTNTNNYFTSVPKNFMELLTNQEAQQWVSGWRLNADSVLWGGHKVFMVKPEEPFQPVKEATQL
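Note: Bxb1 expression induced with 0.2% (w/v) L-rhamnose at OD600 near 0.5, cultures sampled hourly, flipped fraction per protease–substrate barcode pair counted by paired-end Illumina sequencing.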

Variants of: B1
Assay: raw area under fraction-flipped curve 0-4 h after induction (AUC4h, not background-subtracted), DNA-recorder readout of cleavage of the substrate (dimensionless); higher = more cleavage of the substrate by the protease variant
Settings: temperature: 34 °C; time window: 0-4 h after rhamnose induction
Procedure: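 In vivo DNA recorder in E. coli TOP10(DE3) ΔrhaA at 34 °C. Each TEVp single-site mutant (parent TEVp 0) is paired with a single-site variant of the 7-mer TEVs (canonical ENLYFQ|S). The substrate sits between flexible linkers in a Bxb1-sfGFP-TEVs-SsrA fusion, so cleavage stabilises Bxb1 and speeds flipping of a recombination array, read by NGS. The value is the raw area under the fraction-flipped curve over 0-4 h after rhamnose induction (AUC4h), with ≥20 reads per time point. It is not background-subtracted; inactive controls average about 0.047.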
With MGESLFKGPRDYNPISSSICHLTNESDGHTTSLYGIGFGPFIITNKHLFRRNNGTLVVQSLHGVFKVKDTTTLQQHLVDGRDMIIIRMPKDFPPFPQKLKFREPQREERICLVTTNFQTKSMSSMVSDTSCTFPSGDGIFWKHWIQTKDGQCGSPLVSTRDGFIVGIHSASNFTNTNNYFTSVPKNFMELLTNQEAQQWVYGWRLNADSVLWGGHKVFMVKPEEPFQPVKEATQL [S201Y] the “area with substrate ENCYFQS” value was 0.0706, the “area with substrate ENDYFQS” value was 0.0567 and the “area with substrate ENEYFQS” value was 0.0954. The “area with substrate ENIYFQS” value was 0.0962, the “area with substrate ENNYFQS” value was 0.0651 and the “area with substrate ENPYFQS” value was 0.0724. The “area with substrate ENQYFQS” value was 0.0563, the “area with substrate ENRYFQS” value was 0.0199 and the “area with substrate ENSYFQS” value was 0.0567. The “area with substrate ENVYFQS” value was 0.05. For MGESLFEGPRDYNPISSSICHLTNESDGHTTSLYGIGFGPFIITNKHLFRRNNGTLVVQSLHGVFKVKDTTTLQQHLVDGRDMIIIRMPKDFPPFPQKLKFREPQREERICLVTTNFQTKSMSSMVSDTSCTFPSGDGIFWKHWIQTKDGQCGSPLVSTRDGFIVGIHSASNFTNTNNYFTSVPKNFMELLTNQEAQQWVSGWRLNADSVLWGGHKVFMVKPEEPFQPVKEATQL [K7E], the “area with substrate ENDYFQS” value was 0.0659, the “area with substrate ENFYFQS” value was 0.0606 and the “area with substrate ENGYFQS” value was 0.0671. The “area with substrate ENNYFQS” value was 0.0418, the “area with substrate ENPYFQS” value was 0.0592 and the “area with substrate ENQYFQS” value was 0.0458. With MGESLFKGPRDYNPISSSICHLTNESDGHTTSLYGIGFGPFIITNKHLFRRNNGTLVVQSLHGVFKVKDTTTLQQHLVDGRDMIIIRMPKDFPPFPQKLKFREPQREERICLVTTNFQTKSMSSMVSDTSCTFPSGDGIFWKHWIQTKDGQCGSPLVSTRDGFIVGIHSASNFTNTNNYFTSVPKNFMELLTNQEAQQMVSGWRLNADSVLWGGHKVFMVKPEEPFQPVKEATQL [W199M] the “area with substrate ENCYFQS” value was 0.0791, the “area with substrate ENDYFQS” value was 0.058 and the “area with substrate ENEYFQS” value was 0.0602. For the same variant, the “area with substrate ENFYFQS” value was 0.0605, the “area with substrate ENGYFQS” value was 0.0559 and the “area with substrate ENIYFQS” value was 0.0644. The “area with substrate ENKYFQS” value was 0.0389, the “area with substrate ENMYFQS” value was 0.0922 and the “area with substrate ENPYFQS” value was 0.0626. The “area with substrate ENQYFQS” value was 0.0611 and the “area with substrate ENVYFQS” value was 0.0535. For MGESYFKGPRDYNPISSSICHLTNESDGHTTSLYGIGFGPFIITNKHLFRRNNGTLVVQSLHGVFKVKDTTTLQQHLVDGRDMIIIRMPKDFPPFPQKLKFREPQREERICLVTTNFQTKSMSSMVSDTSCTFPSGDGIFWKHWIQTKDGQCGSPLVSTRDGFIVGIHSASNFTNTNNYFTSVPKNFMELLTNQEAQQWVSGWRLNADSVLWGGHKVFMVKPEEPFQPVKEATQL [L5Y], the “area with substrate ENDYFQS” value was 0.0567, the “area with substrate ENEYFQS” value was 0.0474 and the “area with substrate ENFYFQS” value was 0.0608. For the same variant, the “area with substrate ENNYFQS” value was 0.055, the “area with substrate ENPYFQS” value was 0.0687 and the “area with substrate ENRYFQS” value was 0.0683. The “area with substrate ENSYFQS” value was 0.05 and the “area with substrate ENVYFQS” value was 0.0823. For MGESLFKGPRDYNPISSSICHLTNESDGHTTSLEGIGFGPFIITNKHLFRRNNGTLVVQSLHGVFKVKDTTTLQQHLVDGRDMIIIRMPKDFPPFPQKLKFREPQREERICLVTTNFQTKSMSSMVSDTSCTFPSGDGIFWKHWIQTKDGQCGSPLVSTRDGFIVGIHSASNFTNTNNYFTSVPKNFMELLTNQEAQQWVSGWRLNADSVLWGGHKVFMVKPEEPFQPVKEATQL [Y34E], the “area with substrate ENDYFQS” value was 0.0794, the “area with substrate ENPYFQS” value was 0.0541 and the “area with substrate ENQYFQS” value was 0.0481. For the same variant, the “area with substrate ENRYFQS” value was 0.0575, the “area with substrate ENTYFQS” value was 0.0562 and the “area with substrate ENVYFQS” value was 0.0641. In the case of MGESLFKGPRDYNPISSSICHLTNESDGHTTSLYGIGFGPFIITNKHLFRRNNGTLVVQSLHGVFKVKDTTTLQQHLVDGRDMIIIRMPKDFPPFPQKLKFREPQREERICLVTTNFQTKSMSSMVSDTSCTFPSGDGIFWKHWIQTKDGQCGSPLVSTRDGFIVGIHSASNFTNTNNYFTSVPKNFMELLTNQEAQQWVSGWRLNADSVLWGGHKVFKVKPEEPFQPVKEATQL [M219K], the “area with substrate ENCYFQS” value is reported as 0.0554, the “area with substrate ENDYFQS” value is reported as 0.0532 and the “area with substrate ENEYFQS” value is reported as 0.062. The “area with substrate ENGYFQS” value was 0.0499, the “area with substrate ENIYFQS” value was 0.061 and the “area with substrate ENKYFQS” value was 0.0852. For the same variant, the “area with substrate ENMYFQS” value was 0.0704, the “area with substrate ENNYFQS” value was 0.065 and the “area with substrate ENPYFQS” value was 0.0705. The “area with substrate ENQYFQS” value was 0.0586, the “area with substrate ENSYFQS” value was 0.0552 and the “area with substrate ENTYFQS” value was 0.0591. For the same variant, the “area with substrate ENVYFQS” value was 0.0601 and the “area with substrate ENYYFQS” value was 0.0578. In the case of MGESLFKGPRDYNPISSSICHLTNESDGHTTSLYGIGFGPFIITNKHLFRRNNGTLVVQSLHGVFKVKDTTTLQQHLVDGRDMIIIRMPKDFPPFPQKLKFREPQREERICLVTTNFQTKSMSSMVSDTSCTFPSGDGIFWKHWIQTKDGQCGSPLVSTRDGFIVGIHSASNFTNTNNYFTSVPKNFMELLTNQEAQQWVSGWRLNADSVLWGGHKVFHVKPEEPFQPVKEATQL [M219H], the “area with substrate ENCYFQS” value is reported as 0.0676, the “area with substrate ENDYFQS” value is reported as 0.0618 and the “area with substrate ENEYFQS” value is reported as 0.057. For the same variant, the “area with substrate ENFYFQS” value was 0.054, the “area with substrate ENHYFQS” value was 0.0534 and the “area with substrate ENKYFQS” value was 0.0512. The “area with substrate ENMYFQS” value was 0.072, the “area with substrate ENNYFQS” value was 0.0571 and the “area with substrate ENQYFQS” value was 0.0694. For the same variant, the “area with substrate ENRYFQS” value was 0.0794, the “area with substrate ENSYFQS” value was 0.0586 and the “area with substrate ENTYFQS” value was 0.0568. The “area with substrate ENYYFQS” value was 0.0605. In the case of MGESLFKGPRDYNPISSSICHLTNESDGHTTSLYGIGFGPFIITNKHLFRRNNGTLVVQSLHGVFKVKDTTTLQQHLVDGRDMIIIRMPKDFPPFPQKLKFREPQREERICLVTTNFQTKSMSSMVSDTSCTFPSGDGIFWKHWIQTKDGQCGSPLVSTRDGFIVGIHSASNFTNTNNYFTSVPKNFMELLTNQEAQQWVSGWRANADSVLWGGHKVFMVKPEEPFQPVKEATQL [L205A], the “area with substrate ENCYFQS” value is reported as 0.0528, the “area with substrate ENFYFQS” value is reported as 0.0738 and the “area with substrate ENHYFQS” value is reported as 0.0579. The “area with substrate ENIYFQS” value was 0.0794, the “area with substrate ENKYFQS” value was 0.056 and the “area with substrate ENQYFQS” value was 0.0422. The “area with substrate ENSYFQS” value was 0.0526 and the “area with substrate ENVYFQS” value was 0.0507. In the case of MGESLFKGPRDYNPISSSICHLTNESDGHTTSLYGIGFGPFIITNKHLFRRNNGTLVVQSLHGVFKVKDTTTLQQHLVDGRDMIIIRMPKDFPPFPQKLKFREPQREERICLVTTNFQTKSMSSMVSDTSCTFPSGDGIFWKHWIQTKDGQCGSPLVSTRDGFIVGIHSASNFTNTNNYFTSVPKNFMELLTNQEAQQWRSGWRLNADSVLWGGHKVFMVKPEEPFQPVKEATQL [V200R], the “area with substrate ENCYFQS” value is reported as 0.0629, the “area with substrate ENEYFQS” value is reported as 0.0488 and the “area with substrate ENQYFQS” value is reported as 0.0643. For the same variant, the “area with substrate ENRYFQS” value was 0.0417 and the “area with substrate ENSYFQS” value was 0.0611.
